According to PubChem BioAssay AID445 (National Center for Advancing Translational Sciences (NCATS), 2006):
In all, about 110,000 compounds went through this assay and about 40 (0.04%) were called active. Inconclusive means that the source gave no clear call. Such entries were picked first, then a sample of the others. Calls follow the shape of the dose curve; as a rule, active = well fitted curve in the direction sought with a large enough effect in the signal ratio (not every such curve was filed as active); inconclusive = small, poorly fitted or top-dose-only effect, or a change in a side signal; inactive = flat fitted curve, though single readings scatter; the % refers to the signal ratio. A potency beside an inconclusive call is a rough fit, not a confirmed value.

Experiment: IkB Signaling;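 as to IkBa stabilization activation: 0% = basal untreated cells and 100% = reference inhibitor full response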
Conditions: ABC-DLBCL IkBa-CBG/CBR dual luciferase ratio (green luciferase fused to IkBa over red control in OCI-Ly3 lymphoma cells), 4 h; IkBa stabilization activation: at 57.1 µM (top of the series), scaled: untreated 0%, proteasome inhibitor 100% unless noted
How it was run: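 In this assay, an IκBα–CBG68 fusion accumulates when IKK-driven degradation is blocked; native CBR normalizes for cell number. OCI-Ly3 cells were treated 4 h with compound and doxycycline, then green and red light read after Chroma-Glo addition.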
Potency is read from the fitted curve at half-maximal effect.

Q: For `CCCCCn1c(=NC(C)=O)c(C#N)cc2c(=O)n3ccccc3nc21`, which “IkBa stabilization activation” value is on record?
A: inactive: 0.129%

Q: For `COc1cccc(C(=O)N(Cc2ccco2)Cc2cc3cccc(C)c3[nH]c2=O)c1`, which IkBa stabilization activation is on record?
A: inconclusive: 6.39% [signal inhibitor]

Q: Which “IkBa stabilization activation” value does the source give for `CCCCc1ccc(C(=O)NC(C(=O)O)C(C)C)cc1` (centres undefined) here?
A: inactive: 0.298%

Q: With `Cc1ccc(C)c(N2CCN(C(=O)c3cc4ccc5cccnc5c4[nH]3)CC2)c1` as the compound, how does the “IkBa stabilization activation” value read?
A: inactive: 0.746%

Q: With `Cc1[nH]c2ccccc2c1SCC(=O)N1CCOCC1` as the compound, how does the “IkBa stabilization activation” value read?
A: inactive: 1.07%

Q: For `Cc1ccc(OCC(=O)Nc2ccc(Cl)c(-c3nc4ncccc4o3)c2)cc1C`, which IkBa stabilization activation is on record?
A: inconclusive: 0.462% [signal inhibitor]

Q: Which IkBa stabilization activation does the source give for `O=c1oc2ccccc2c(O)c1/C=N/c1ccccn1` here?
A: inconclusive: 13.8% [signal inhibitor]

Q: With `Cn1nnnc1SCCCNCc1ccc(-c2ccc(Br)cc2)o1` as the compound, how does the IkBa stabilization activation read?
A: inconclusive: 0.246% [signal inhibitor]

Q: For `CCCCCn1c(=O)[nH]c2cc(C(=O)Nc3cc(OC)cc(OC)c3)ccc2c1=O`, which IkBa stabilization activation is on record?
A: inconclusive: -0.69% [signal inhibitor]

Q: Which Potency does the source give for `O=C(CSc1nnnn1C1CCCCC1)Nc1cccc(NC(=O)c2ccco2)c1` here?
A: inconclusive: 0.794 µM [signal inhibitor, full curve]

Q: Which “IkBa stabilization activation” value does the source give for `CC(C)C[C@@H](CC(=O)N[C@@H](CCC(=O)O)CC(=O)O)NC(=O)[C@@H]1CCCC[C@H]1NC(=O)C[C@H](CCCN)NC(=O)C[C@H](Cc1c[nH]c2ccccc12)NC(=O)[C@@H]1CCCC[C@H]1N` here?
A: inactive: -1.27%

Q: Which IkBa stabilization activation does the source give for `CCC1CN(C(=O)NCc2ccc(C)cc2)c2cc(C)ccc2O1` (centres undefined) here?
A: inconclusive: 2.83% [signal inhibitor]

Q: Which “IkBa stabilization activation” value does the source give for `Cc1ccc(NC(=O)CSc2nc3ccccc3nc2Cc2ccccc2F)cc1F` here?
A: inactive: 6.81%

Q: With `COC(=O)c1ccc(OCC2c3cc(OC)c(OC)cc3CCN2C(=O)C2CC2)cc1` (centres undefined) as the compound, how does the IkBa stabilization activation read?
A: inconclusive: 2.26% [signal inhibitor]

Q: For `COc1cc2nc(SCc3ccc(Cl)cc3)n3nc(CCn4nc(C)cc4C)nc3c2cc1OC`, which “IkBa stabilization activation” value is on record?
A: inactive: 1.11%

Q: Which “IkBa stabilization activation” value does the source give for `CCn1c(SCC(=O)Nc2cc(C)ccc2C)nc2c(c1=O)SC(C)C2` (centres undefined) here?
A: inactive: -1.97%

Q: For `Cc1cc(NC(=O)CSc2nc(-c3ccccc3F)nc3c2c(=O)n(C)c(=O)n3C)no1`, which “IkBa stabilization activation” value is on record?
A: inactive: -4.07%

Q: Which IkBa stabilization activation does the source give for `COc1cc(C(=O)NCCc2ccc3c(c2)OCCO3)ccc1OCC(=O)N1CCOCC1` here?
A: inconclusive: 1.5% [signal inhibitor]

Q: Which “IkBa stabilization activation” value does the source give for `O=C(NCc1cccs1)C1CCC(CNS(=O)(=O)c2ccc(Br)s2)CC1` (centres undefined) here?
A: inactive: -0.348%

Q: With `Cc1ccc(-c2nc3n(n2)C(c2ccccc2C)C=C(c2ccc(Cl)cc2)N3)cc1` (centres undefined) as the compound, how does the IkBa stabilization activation read?
A: inconclusive: 3.22% [signal inhibitor]

Q: With `COc1cc(C(=O)NCC(c2ccc(N(C)C)cc2)N2CCc3ccccc32)cc(OC)c1OC` (centres undefined) as the compound, how does the IkBa stabilization activation read?
A: inconclusive: 8.42% [signal inhibitor]

Q: With `COc1cc(OC)cc(-c2nc3nc(C)c(CCC(=O)O)c(C)n3n2)c1` as the compound, how does the IkBa stabilization activation read?
A: inconclusive: 14% [signal inhibitor]

Q: For `COc1cccc(Nc2ncc3ncc(=O)n(C[C@H]4CCCO4)c3n2)c1`, which IkBa stabilization activation is on record?
A: inconclusive: -11.1% [signal inhibitor] [at 11.4 µM, scaled: untreated 0%, proteasome inhibitor 100%]

Q: Which IkBa stabilization activation does the source give for `COc1ccc(CNC(=O)c2cc3c(=O)[nH]c4ccc(C)cc4c3s2)c(OC)c1` here?
A: inconclusive: 0.0471% [signal inhibitor]

Q: Which “IkBa stabilization activation” value does the source give for `COc1ccc(CCNC(=O)c2cc(-c3ccc(C)cc3)nc3n[nH]c(-c4ccccc4)c23)cc1OC` here?
A: inactive: 0.905%

Q: With `Cc1ccn2c(Nc3ccc(F)cc3)c(-c3ccc(C)o3)nc2c1` as the compound, how does the IkBa stabilization activation read?
A: inconclusive: 5.38% [signal inhibitor]

Q: For `O=C(CSc1ncc(CO)n1Cc1ccccc1)Nc1nc2ccccc2s1`, which IkBa stabilization activation is on record?
A: inconclusive: 8.36% [signal inhibitor]

Q: With `O=C(NC1CC(=O)N(c2ccc(F)cc2)C1)c1cccs1` (centres undefined) as the compound, how does the “IkBa stabilization activation” value read?
A: inactive: 0.355%

Q: With `Oc1ccccc1-c1nnc(COc2ccc(Cl)cc2Cl)o1` as the compound, how does the Potency read?
A: inconclusive: 20 µM [signal inhibitor, partial curve]

Q: Which “IkBa stabilization activation” value does the source give for `O=C(Nc1ccccc1Cl)N1CCN(c2ccc3nnc(-c4ccccc4)n3n2)CC1` here?
A: inactive: -1.44%

Q: For `CC(=O)COc1ccc2c3c(c(=O)oc2c1)CCCC3`, which “IkBa stabilization activation” value is on record?
A: inactive: -5.34%

Q: For `COc1cc(CN(C(=O)COc2ccc(Br)cc2)c2ccccn2)cc(OC)c1OC`, which IkBa stabilization activation is on record?
A: inconclusive: 0.0785% [signal inhibitor]

Q: For `O=C(Nc1ccc(-c2cc(C(F)(F)F)nn2-c2ccccc2)cc1)c1cccc(F)c1`, which IkBa stabilization activation is on record?
A: inconclusive: 4.93% [signal inhibitor]

Q: With `COc1ccc(-n2nc3cc(C)c(NC(=O)c4cccnc4)cc3n2)cc1` as the compound, how does the “IkBa stabilization activation” value read?
A: inactive: 0.188%

Q: Which IkBa stabilization activation does the source give for `O=c1cc(CSc2ncn[nH]2)[nH]c2c(Cl)cccc12` here?
A: inconclusive: -0.699% [signal inhibitor]

Q: With `CCOC(=O)C1CCN(c2nc(C)nc3c2oc2ccccc23)CC1` as the compound, how does the “IkBa stabilization activation” value read?
A: inactive: 1.25%

Q: For `COc1ccc(OC)c(Nc2nc(-c3ccc(C)cc3)nc3ccccc23)c1`, which IkBa stabilization activation is on record?
A: inconclusive: 2.2% [signal inhibitor]

Q: Which IkBa stabilization activation does the source give for `O=C(CC1N=C2c3ccccc3N=C(SCc3ccc(Cl)cc3)N2C1=O)NCCc1ccccc1` (centres undefined) here?
A: inconclusive: -1.4% [signal inhibitor]

Q: Which “IkBa stabilization activation” value does the source give for `O=C(CSc1nnc(NC(=O)NC2CCCCC2)s1)Nc1ccccc1F` here?
A: inactive: -3.4%

Q: For `CCOc1ccc(C2c3c(-c4ccc(C)cc4)n[nH]c3C(=O)N2c2ccc(Cl)cc2)cc1` (centres undefined), which IkBa stabilization activation is on record?
A: inconclusive: 0.198% [signal inhibitor]

Q: For `CC1CCCN(C(=O)Cn2c(=O)oc3cc(S(=O)(=O)N4CCCCC4)ccc32)C1` (centres undefined), which IkBa stabilization activation is on record?
A: inconclusive: 1.61% [signal inhibitor]

Q: With `O=S(=O)(Nc1cccc(-c2nc3cccnc3s2)c1)c1ccc2c(c1)OCCO2` as the compound, how does the IkBa stabilization activation read?
A: inconclusive: -6.44% [signal inhibitor]

Q: For `COc1cccc(NC(=O)c2sc3nc(N4CCOCC4)c4c(c3c2N)CC(C)(C)OC4)c1`, which IkBa stabilization activation is on record?
A: inconclusive: 4.63% [signal inhibitor]

Q: For `Cc1ccc(CNC(=O)CCCn2c(=O)c3ccccc3n(CC(=O)C(C)(C)C)c2=O)cc1`, which “IkBa stabilization activation” value is on record?
A: inactive: -2.3%

Q: With `COc1cc(NC(=O)C(CC(C)C)NS(=O)(=O)c2ccc3c(c2)CCCC(=O)N3)cc(OC)c1` (centres undefined) as the compound, how does the IkBa stabilization activation read?
A: inconclusive: 0.372% [signal inhibitor]

Q: With `COc1ccc(CNC(=O)c2cc3c(-c4ccccc4F)nn(C)c3s2)c(OC)c1` as the compound, how does the IkBa stabilization activation read?
A: inconclusive: 0.347% [signal inhibitor]

Q: Which IkBa stabilization activation does the source give for `Cc1ccc(C)c(N2CCN(C(=O)c3cnc4c(-c5ccccc5)c(C)nn4c3C)CC2)c1` here?
A: inconclusive: 5.37% [signal inhibitor]

Q: With `COc1cccc(NC(=O)Cn2cc(C(=O)C3CCCCC3)c3ccccc32)c1` as the compound, how does the IkBa stabilization activation read?
A: inconclusive: 11.5% [signal inhibitor]

Q: Which IkBa stabilization activation does the source give for `CCOC(=O)c1c(NC(C)=O)c2c3c(sc2n1Cc1nc(-c2ccccc2OCC)oc1C)CCCC3` here?
A: inconclusive: 3.54% [signal inhibitor]

Q: Which IkBa stabilization activation does the source give for `COc1cccc(CNC(=O)CN2C(=O)N(c3cc(C)ccc3C)S(=O)(=O)c3ccccc32)c1OC` here?
A: inconclusive: -0.611% [signal inhibitor]

Q: Which IkBa stabilization activation does the source give for `Cc1ccc(C)c(CN2C(=O)c3ccccc3S(=O)c3ccc(C(=O)NCc4ccccc4Cl)cc32)c1` (centres undefined) here?
A: inconclusive: 1.57% [signal inhibitor]

Q: Which Potency does the source give for `O=c1onc2cnc3ccccc3n12` here?
A: inconclusive: 31.6 µM [rising, partial curve]

Q: Which IkBa stabilization activation does the source give for `COc1cc(C)c(Cl)cc1S(=O)(=O)NCCc1c(C)[nH]c2ccccc12` here?
A: inconclusive: 8.74% [signal inhibitor]

Q: Which IkBa stabilization activation does the source give for `COc1ccc2c(c1)CCc1c(C(=O)N3CCCc4ccccc43)noc1-2` here?
A: inconclusive: 2.58% [signal inhibitor]

Q: With `Cc1nc2c(c(C)c1CCC(=O)Nc1cccc(C(F)(F)F)c1)c(=O)n(C)c(=O)n2C` as the compound, how does the IkBa stabilization activation read?
A: inconclusive: 2.34% [signal inhibitor]

Q: Which “IkBa stabilization activation” value does the source give for `COc1cc(-c2nc(-c3ccc(Br)o3)no2)cc(OC)c1OC` here?
A: inactive: 0.0851%

Q: For `CC1CCCN(S(=O)(=O)c2cc3c(cc2Cl)NC(=O)CO3)C1` (centres undefined), which Potency is on record?
A: inconclusive: 10 µM [signal inhibitor, partial curve]

Q: With `COc1cc(OC)c(Nc2nc3ccc(C)cc3n3nnnc23)cc1Cl` as the compound, how does the IkBa stabilization activation read?
A: inconclusive: 4.3% [signal inhibitor]

Q: Which IkBa stabilization activation does the source give for `O=C(CCC(=O)N1CC2CCCN2c2ccccc21)NCc1ccccc1Cl` (centres undefined) here?
A: inconclusive: 1.62% [signal inhibitor]

Q: For `COCCCNC(=O)c1ccc2c(c1)N=C(C)c1c(C)ccc(C)c1S2`, which “IkBa stabilization activation” value is on record?
A: inactive: 1.14%

Q: For `COc1ccc(N2CCN(c3ccc(-c4nc(-c5ccccc5C)no4)cc3[N+](=O)[O-])CC2)cc1`, which IkBa stabilization activation is on record?
A: inconclusive: -2.4% [signal inhibitor]

Q: Which “IkBa stabilization activation” value does the source give for `O=C1c2cccnc2-c2ncccc21` here?
A: inactive: -0.95%

Q: With `O=S(=O)(c1cccc(-c2nnc(SCc3nc4ccccc4s3)o2)c1)N1CCOCC1` as the compound, how does the Potency read?
A: inconclusive: 10 µM [signal inhibitor, partial curve]

Q: Which IkBa stabilization activation does the source give for `Cc1ccc(-c2nnc(Nc3ccc(Br)cc3)c3ccccc23)cc1S(=O)(=O)N1CCOCC1` here?
A: inconclusive: 8.16% [signal inhibitor]

Q: With `COc1ccc(-n2c(=O)c3sc4ccccc4c3n(CC(=O)Nc3cccc(C)c3)c2=O)cc1` as the compound, how does the IkBa stabilization activation read?
A: inconclusive: 8.67% [signal inhibitor]

Q: With `Cc1cccc(-n2c(SCc3cc(=O)n4ccsc4n3)nc3ccccc32)c1` as the compound, how does the IkBa stabilization activation read?
A: inconclusive: 2.84% [signal inhibitor]

Q: With `COc1ccccc1NC(=O)c1cc(S(=O)(=O)N(C)C2CCCCC2)ccc1F` as the compound, how does the IkBa stabilization activation read?
A: inconclusive: 0.551% [signal inhibitor]

Q: With `CCOC(=O)N1CCc2c(sc3c2c(=O)n(CCc2ccccc2)c(=O)n3Cc2cc(C)ccc2C)C1` as the compound, how does the IkBa stabilization activation read?
A: inconclusive: -0.678% [signal inhibitor]

Q: Which IkBa stabilization activation does the source give for `CCOc1ccccc1NC(=O)c1cn(C2CCCC2)c(=O)c2c1c1ccccc1n2C` here?
A: inconclusive: 8.99% [signal inhibitor]
